Experimental data taken from paper PMC4336329 (PLoS ONE, 2015).
In all, about 310,000 compounds went through this assay and about 14,000 (4.5%) showed an effect of 50% or more. The effect is printed as a negative number. The list shows a part of the results.

biological target: human ether-à-go-go-related gene (hERG) potassium channel (human, UniProt Q12809); assay: primary screen, population patch clamp on CHO cells stably expressing hERG
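Note: peak tail current of the secondary pulse compared with the same well before compound.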

Chain of human ether-à-go-go-related gene (hERG) potassium channel (Q12809 whole entry, looked up): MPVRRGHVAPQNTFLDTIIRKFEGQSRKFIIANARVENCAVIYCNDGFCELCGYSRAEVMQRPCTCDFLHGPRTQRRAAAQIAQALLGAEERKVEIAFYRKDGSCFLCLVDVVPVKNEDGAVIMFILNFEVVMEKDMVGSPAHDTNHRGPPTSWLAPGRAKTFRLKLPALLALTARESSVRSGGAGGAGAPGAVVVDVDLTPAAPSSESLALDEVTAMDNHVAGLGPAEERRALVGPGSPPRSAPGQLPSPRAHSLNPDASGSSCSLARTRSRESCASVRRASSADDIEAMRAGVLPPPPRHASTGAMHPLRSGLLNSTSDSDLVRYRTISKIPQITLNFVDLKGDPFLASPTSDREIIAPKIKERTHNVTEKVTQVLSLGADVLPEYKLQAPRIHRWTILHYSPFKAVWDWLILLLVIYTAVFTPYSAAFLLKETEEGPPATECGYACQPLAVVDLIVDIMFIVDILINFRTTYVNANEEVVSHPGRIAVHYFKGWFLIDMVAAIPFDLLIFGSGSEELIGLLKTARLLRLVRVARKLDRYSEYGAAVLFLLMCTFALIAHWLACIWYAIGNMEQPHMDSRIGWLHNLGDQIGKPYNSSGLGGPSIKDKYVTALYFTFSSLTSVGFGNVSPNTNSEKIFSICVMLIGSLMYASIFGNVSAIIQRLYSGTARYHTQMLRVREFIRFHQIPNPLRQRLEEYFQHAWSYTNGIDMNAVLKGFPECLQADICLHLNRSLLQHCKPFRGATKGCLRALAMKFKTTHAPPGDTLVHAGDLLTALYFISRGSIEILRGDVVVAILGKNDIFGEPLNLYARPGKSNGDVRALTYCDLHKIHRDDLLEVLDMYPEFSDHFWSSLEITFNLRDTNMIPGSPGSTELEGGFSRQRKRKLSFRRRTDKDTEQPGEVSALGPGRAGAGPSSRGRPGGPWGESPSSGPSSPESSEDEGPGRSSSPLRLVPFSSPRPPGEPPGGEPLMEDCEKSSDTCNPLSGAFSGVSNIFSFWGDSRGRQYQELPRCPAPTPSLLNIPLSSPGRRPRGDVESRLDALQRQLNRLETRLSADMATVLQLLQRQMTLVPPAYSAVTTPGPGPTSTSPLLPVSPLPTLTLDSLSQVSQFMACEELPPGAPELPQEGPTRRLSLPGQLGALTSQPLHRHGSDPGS

Row | Compound | hERG current change (%, negative = inhibition) at 10uM [%]
1 | Cc1cccc(NC(=O)/C(C#N)=C\c2cccnc2)c1 | -19.2
2 | COc1ccc(-c2noc(CCC(=O)NC3CCCCC3)n2)cc1OC | 19.5
3 | CC(NC(=O)NC(=O)c1cccc(Cl)c1)c1ccccc1 (centres unmarked) | 19.2
4 | O=C(NCC(c1ccco1)N1CCc2ccccc2C1)c1ccc([N+](=O)[O-])cc1 (centres unmarked) | -58.1
5 | CCc1sc(NC(=O)CCC(=O)O)nc1-c1cc2ccccc2oc1=O | 27.9
6 | c1csc(Cc2nn3c(-c4ccncc4)nnc3s2)c1 | -28.3
7 | CC(=O)c1ccc(NC2CC(O)C(O)CO2)cc1 (centres unmarked) | 7.81
8 | CCCCn1c(-c2sccc2C)n[nH]c1=S | 18.4
9 | Cc1cc([N+](=O)[O-])nn1CC(=O)N1CCc2ccccc2C1 | -15
10 | O=C(CCNc1cc(Cl)cc(Cl)c1)c1cccs1 | 17.4
11 | Cc1ccccc1NC(=S)N1CCN(c2ccccc2)CC1 | 20.6
12 | CC1CC(C)CN(c2cc(N(C)CCO)c([N+](=O)[O-])c3nonc23)C1 (centres unmarked) | -11.3
13 | S=C(NCCC1=CCCCC1)Nc1ccc(Cl)cc1 | 4.77
14 | COc1cccc(C2CC(=O)Nc3c2c(=O)[nH]c2ncnn32)c1 (centres unmarked) | 20.6
15 | CC(C)NC[C@@H](O)c1ccc(O)c(O)c1.O=C(O)C(O)C(O)C(=O)O | 16.7
16 | Cc1sc2nc3n(c(=O)c2c1C)CCCS3 | -8.05
17 | O=C(N1CCCC1)n1c(Cc2ccccc2)nc2ccccc21 | -10.2
18 | CCOc1ccc(Br)cc1S(=O)(=O)Nc1ccc(C(=O)Nc2ccccc2OC)cc1 | -0.331
19 | Cn1c(C(=O)NN)cc2cc(OCc3ccccc3)ccc21 | 13.3
20 | CCN(CC(=O)Nc1c(F)cccc1F)C(=O)Cc1ccccc1 | -1.53
21 | COc1ccc(CCNC(=O)c2nonc2N)cc1OC | 2.17
22 | CSc1ccc(C(=S)N2CCN(Cc3ccccc3)CC2)cc1 | -50.4

Row | Compound | hERG current change (%, negative = inhibition) at 10uM [%]
23 | CCOc1ccccc1Nc1nnc(SCC(=O)Nc2cc(C)on2)s1 | 6.14
24 | COc1ccc(CCNC(=O)CNCC2CCCCC2)cc1OC.O=C(O)C(=O)O | 29.1
25 | CCCCNC(=O)C1CCN(Cc2ccc(OCc3ccccc3)cc2)CC1.O=C(O)C(=O)O | -71.7
26 | CCCc1nnc(NC(=O)c2nc(S(=O)(=O)Cc3ccc(C)cc3)ncc2Cl)s1 | -9.73
27 | OCc1nn2c(c1Br)NC(c1ccccc1)CC2C(F)(F)F (centres unmarked) | -9.56
28 | CS(=O)(=O)N(CC(=O)NCCC1=CCCCC1)c1ccc2c(c1)OCO2 | -2.28
29 | CCOC(=O)c1nc(C)sc1-c1ccnn1S(=O)(=O)c1ccccc1C(F)(F)F | -25.1
30 | COc1ccccc1C(=O)NCCC(=O)NCC(c1ccco1)N1CCCCC1 (centres unmarked) | 3.37
31 | CCC1CCC(N2CCN(c3ccccc3F)CC2)CC1 (centres unmarked) | -22.2
32 | Cc1cc(C)n(-c2nnc(Cl)c3ccccc23)n1 | 24.2
33 | CN(C(=O)COC(=O)c1ccccc1C(=O)N(C)c1ccccc1)c1ccccc1 | -8.82
34 | CCO[C@@H]1OC(C(=O)N2CCN(Cc3ccccc3)CC2)=C[C@H](c2cn(C(C)=O)c3ccccc23)[C@H]1CCCO | -37.9
35 | N#C[C@H]1C(O)C(O)c2ccccc2N1C(=O)c1ccccc1 (some centres unmarked) | 7.24
36 | CCCCNC(=O)C1CC(=O)N(CCC(C)C)C1 (centres unmarked) | 9.55
37 | COc1cccc(NC(=O)CSC2=C(C#N)C(c3ccco3)C3=C(CCCC3=O)N2)c1 (centres unmarked) | -11.9
38 | CS(=O)(=O)c1ccc(SCC(=O)NC2CCS(=O)(=O)C2)c([N+](=O)[O-])c1 (centres unmarked) | -6.31
39 | COc1ccc(CCNC(=O)COc2nsnc2N2CCOCC2)cc1OC | -11.5
40 | Cc1cc(=O)oc2cc(OCC(=O)Nc3ccc(CN4CCOCC4)cc3)c(Cl)cc12 | 2.5
41 | COc1ccc(Cl)cc1S(=O)(=O)N1CCC(C(=O)NC2CCCC2)CC1 | -21.2
42 | Cc1ccc(S(=O)(=O)N(CC(=O)NCc2ccc(F)cc2)C(=O)N2CCN(C)CC2)cc1 | 7.49
43 | O=C(Nc1cccc(C(=O)O)c1)/C(=C\c1ccccc1)NC(=O)c1ccccc1 | 0.645
44 | O=C(CN1CCC(c2nc3ccccc3[nH]2)CC1)Nc1ccc2c(c1)OCO2 | -53.1
